# Test results taken from publication PMC4336329 (PLoS ONE, 2015).
# Screen size: about 310,000 compounds; about 2,200 (0.71%) showed an effect of 50% or more. The effect is printed as a negative number. The list shows a part of the results.
# Target: human ether-à-go-go-related gene (hERG) potassium channel (human, UniProt Q12809)
# Assay: primary screen, population patch clamp on CHO cells stably expressing hERG
# human ether-à-go-go-related gene (hERG) potassium channel, sequence (Q12809 whole entry, looked up): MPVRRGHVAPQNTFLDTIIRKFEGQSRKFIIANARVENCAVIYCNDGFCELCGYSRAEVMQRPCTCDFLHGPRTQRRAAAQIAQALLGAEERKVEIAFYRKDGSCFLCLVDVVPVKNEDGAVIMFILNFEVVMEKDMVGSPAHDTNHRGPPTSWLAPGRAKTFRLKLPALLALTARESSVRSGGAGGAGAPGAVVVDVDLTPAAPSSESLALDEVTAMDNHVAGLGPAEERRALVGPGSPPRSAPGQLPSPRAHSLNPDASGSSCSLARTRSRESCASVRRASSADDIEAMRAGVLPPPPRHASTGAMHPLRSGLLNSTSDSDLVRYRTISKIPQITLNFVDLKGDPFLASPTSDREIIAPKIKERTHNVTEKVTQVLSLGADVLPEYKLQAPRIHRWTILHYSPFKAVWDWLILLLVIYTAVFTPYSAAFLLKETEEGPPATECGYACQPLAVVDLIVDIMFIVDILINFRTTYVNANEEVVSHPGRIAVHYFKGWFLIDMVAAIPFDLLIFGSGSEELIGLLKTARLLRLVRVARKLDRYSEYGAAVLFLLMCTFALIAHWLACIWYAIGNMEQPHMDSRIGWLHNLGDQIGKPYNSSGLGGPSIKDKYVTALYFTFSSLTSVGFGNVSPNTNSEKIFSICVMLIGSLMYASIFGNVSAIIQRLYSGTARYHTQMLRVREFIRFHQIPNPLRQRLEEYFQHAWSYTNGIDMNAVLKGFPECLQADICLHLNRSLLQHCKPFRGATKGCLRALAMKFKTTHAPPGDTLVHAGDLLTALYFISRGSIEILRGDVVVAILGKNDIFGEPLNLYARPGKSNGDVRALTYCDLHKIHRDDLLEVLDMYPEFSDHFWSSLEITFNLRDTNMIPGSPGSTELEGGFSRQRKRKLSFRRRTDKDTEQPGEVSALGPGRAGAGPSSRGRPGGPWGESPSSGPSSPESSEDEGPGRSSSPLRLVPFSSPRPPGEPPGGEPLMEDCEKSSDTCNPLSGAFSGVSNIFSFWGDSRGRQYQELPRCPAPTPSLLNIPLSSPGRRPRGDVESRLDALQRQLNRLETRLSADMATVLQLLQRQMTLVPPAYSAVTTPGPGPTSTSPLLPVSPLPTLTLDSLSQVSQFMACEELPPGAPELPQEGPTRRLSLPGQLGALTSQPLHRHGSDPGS
row,Structure (SMILES),"hERG current change (%, negative = inhibition) at 1uM"
1,COc1ccccc1CNC(=O)COC(=O)Cc1c[nH]c2ccccc12,5.17%
2,CCCCOC(=O)CCCN1C(=O)/C(=C2\SC(=S)N(CCCC(=O)OCCCC)C2=O)SC1=S,6.38%
3,CCOc1ccc(CC(=O)NCc2ccc3c(c2)cc(C)n3C)cc1,3.92%
4,CCc1nc(SCC(=O)O)c(C#N)c2c1CCCC2,11.3%
5,CCOC(=O)c1c(C)n(CC(O)c2ccccc2)c2ccc(O)cc12 (stereo not drawn),13.6%
6,O=C(O)CC12CC3CC(C1)CC(n1ncc(NCc4ccc(F)cc4)c(Cl)c1=O)(C3)C2,-10.5%
7,O=c1c([N+](=O)[O-])cc(C(F)(F)F)cn1Cc1c(Cl)cccc1Cl,13%
8,COc1ccc(OC)c(C(=O)c2coc3ccc(OC)cc23)c1,-3.13%
9,CCCCCOc1ccc(N2C(=O)CC(N(O)c3ccccc3)C2=O)cc1 (stereo not drawn),16.9%
10,Cc1ccc(C)c(N(C(=O)c2csnn2)C(C(=O)NC2CCCC2)c2ccncc2)c1 (stereo not drawn),18.7%
11,O=C(O)C1CC=CCC1C(=O)NCCc1csc(-c2ccccc2)n1 (stereo not drawn),-15.3%
12,COc1ccccc1CCCNC(=O)C1CCC(=O)N(CCc2cccc(F)c2)C1 (stereo not drawn),-6.96%
13,Cc1ccc(-c2nnn(CC(=O)N(Cc3ccccc3F)C(C(=O)NC3CCCC3)c3ccncc3)n2)o1 (stereo not drawn),9.61%
14,CCCCn1c(O)c(C(C)=NCCCN(CC)CC)c(=O)[nH]c1=O,2.51%
15,CCOC(=O)c1sc(NC(=S)NC(=O)c2ccc(OC)cc2)nc1C,14.3%
16,Cc1cccc(NC(=O)c2ccc(Cl)c(NC(=O)c3ccncc3)c2)c1C,6.41%
17,O=C(COC(=O)c1cccc(O)c1)c1ccccc1,4.84%
18,Cc1cccc2cc(CN(CC3CCCO3)C(=O)c3cccnc3)c3nnnn3c12 (stereo not drawn),11.5%
19,COc1ccc(N(CC(=O)NCCSCc2ccccc2Cl)S(C)(=O)=O)cc1Cl,10.1%

row,Structure (SMILES),"hERG current change (%, negative = inhibition) at 1uM"
1,COC(=O)C(C(=O)OC)C(C(C)C)C(C(=O)OC)C(=O)OC,7.91%
2,NC(=O)C1CCN(C(=O)CSc2nc(O)cc(=O)[nH]2)CC1,5.35%
3,CC(C)c1cccc(C(C)C)c1O,15.3%
4,O=C(Nc1nnc(Cc2c[nH]c3ccccc23)s1)c1ccc(Cl)cc1Cl,11.8%
5,CSc1ccccc1OCc1cc(C(=O)N(C)CC2COCCO2)no1 (stereo not drawn),10.4%
6,COC(=O)c1ccc(OCC(=O)c2cccc(OC)c2)cc1,12.6%
7,Cc1ccc(NC(=O)C2Cc3ccccc3C(=O)O2)cc1 (stereo not drawn),7.98%
8,COc1ccccc1-c1nnc(NC(=O)C(C)C)s1,12%
9,CN(C)c1nc2c(c(=O)[nH]c(=O)n2C)n1CCCc1ccccc1,0.828%
10,Cc1ccc(C2=CC(=O)C[C@H](c3ccc(Cl)cc3)C2)cc1,10.4%
11,CC(C)Oc1cc(NC(=O)CS(=O)(=O)CC(=O)N(C)C)c(Cl)cc1Cl,14.3%
12,Cc1cccc(N2CCN(S(=O)(=O)c3ccc(-c4ccc(=O)[nH]n4)o3)CC2)c1C,9.13%
13,CCCC1CCC(=NNC(=O)OC(C)(C)C)CC1 (stereo not drawn),11.1%
14,CCOC(=O)C1=C(c2ccccc2)Nc2ncnn2C1c1cccc(OC)c1OC (stereo not drawn),21.4%
15,N#Cc1nc(COc2ccccc2Cl)oc1NCc1cccnc1,-9.5%
16,Nc1nc(CSc2nc3ccccc3[nH]2)cs1,13.7%
17,O=C(NCC(=O)N1CCN(c2cccc(Cl)c2)CC1)c1ccc(Br)o1,-57.5%
18,COc1cc2c(cc1OC)C(C)N(S(=O)(=O)c1cccs1)CC2 (stereo not drawn),11%
19,Cc1cc(C(=O)NC(C)c2ccncc2)no1 (stereo not drawn),2.06%

row,Structure (SMILES),"hERG current change (%, negative = inhibition) at 1uM"
1,Cc1cccc(C)c1NC(=O)CN(C)C(=O)C1CCN(c2ncnc3sc(C)c(C)c23)CC1,-29.4%
2,O=C(Nc1cccc2ccccc12)c1nn(C23CC4CC(CC(C4)C2)C3)cc1Br,6.53%
3,CCOC(=O)c1sc(SC)c(C(C)=O)c1C,2.78%
4,Nc1ccccc1C(=O)N=Nc1[nH]c(N)c2ccccc12,21%
5,Cc1cc(=O)oc(C)c1C(=O)Nc1c(C)n(C)n(-c2ccccc2)c1=O,9.57%
6,CCN(CCNCC(O)COCc1ccc(Cl)cc1)c1cccc(C)c1.O=C(O)C(=O)O (stereo not drawn),1.74%
7,COC(=O)c1ccc(C23CC4(C2)[C@H](CN(C)[C@@H]4c2ccccc2)C3c2ccc(C(F)(F)F)cc2)cc1 (stereo partly drawn),-13.2%
8,Oc1cccc(/C=N/Nc2cc(N3CCOCC3)nc(N3CCOCC3)n2)c1,4.32%
9,O=C(O)CC1COc2ccccc2N1S(=O)(=O)c1ccc(Br)cc1 (stereo not drawn),10.9%
10,CN(C)c1cccc2c1c(NC(=O)c1ccc(F)cc1)nn2C,-0.755%
11,COc1cccc(CN2CCNC(=O)C2CC(=O)NCc2cn3cccc(C)c3n2)c1OC (stereo not drawn),10.7%
12,CC(C)NC(=O)c1onc(CSc2ccc(Cl)cc2)c1C(=O)O,10.5%
13,Cc1cc(C)cc(OCC(=O)Nc2ccccc2C(=O)NCc2ccco2)c1,11.9%
14,Cn1c(=O)c(=O)n(C)c2cc(S(=O)(=O)N3CCCC3C(=O)NCc3ccco3)ccc21 (stereo not drawn),15.5%
15,CC(C)CSC1=NSC2=NC(=O)/C(=C\c3ccccc3)C(=N)N12,17.5%
16,Cn1c(=S)[nH]c(=O)c2ncc(=O)[nH]c21,3.01%
17,Cc1ccc(SCC(=O)NC2CC2)cc1,14.2%
18,CCOC(=O)c1nn(-c2ccc(C)c(C)c2)cc1O,0.585%
19,CCOC(=O)N1CCN(Cc2nc3c(c(=O)n(C)c(=O)n3C)n2Cc2ccccc2C)CC1,1.8%
